# In the supplement of paper PMC8728848:
# This is one part of the list.
# Assays:
# Experiment in all cases: glycan array binding signal (z-score within array); higher = stronger binding
# Settings in all cases: glycan notation: IUPAC condensed, linker removed
# Fuc(a1-3)GlcNAc = target: Fuc(a1-3)GlcNAc
# Method in brief: (§1)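 The binding signal is a Z-score computed within each array and averaged over linkers. Arrays of the same protein sequence at different concentrations or buffers were also averaged together. Data originate from 3228 arrays in the Consortium for Functional Glycomics database, kept only where the protein sequence was available.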
# [1] = target: Fuc(a1-3)[Gal(b1-4)]Glc6S
# Method in brief: as §1
# [2] = target: Fuc(a1-3)[Gal(b1-4)]GlcNAc
# Method in brief: as §1
# [3] = target: Fuc(a1-3)[Gal(b1-4)]GlcNAc(b1-2)Man
# Method in brief: as §1
# [4] = target: Fuc(a1-3)[Gal(b1-4)]GlcNAc(b1-2)Man(a1-3)[Fuc(a1-3)[Gal(b1-4)]GlcNAc(b1-2)Man(a1-6)]Man(b1-4)GlcNAc(b1-4)GlcNAc
# Method in brief: as §1
# [5] = target: Fuc(a1-3)[Gal(b1-4)]GlcNAc(b1-2)Man(a1-3)[Fuc(a1-3)[Gal(b1-4)]GlcNAc(b1-2)Man(a1-6)]Man(b1-4)GlcNAc(b1-4)[Fuc(a1-6)]GlcNAc
# Method in brief: as §1
# [6] = target: Fuc(a1-3)[Gal(b1-4)]GlcNAc(b1-3)Gal(b1-3)[Fuc(a1-4)]GlcNAc
# Method in brief: as §1
# [7] = target: Fuc(a1-3)[Gal(b1-4)]GlcNAc(b1-3)Gal(b1-4)[Fuc(a1-3)]GlcNAc
# Method in brief: as §1
# [8] = target: Fuc(a1-3)[Gal(b1-4)]GlcNAc(b1-3)Gal(b1-4)[Fuc(a1-3)]GlcNAc(b1-3)Gal(b1-4)[Fuc(a1-3)]GlcNAc
# Method in brief: as §1
# [9] = target: Fuc(a1-3)[Gal(b1-4)]GlcNAc(b1-3)GalNAc
# Method in brief: as §1
# [10] = target: Fuc(a1-3)[Gal(b1-4)]GlcNAc(b1-6)GalNAc
# Method in brief: as §1
# [11] = target: Fuc(a1-3)[Gal(b1-4)]GlcNAc(b1-6)[Gal(b1-3)GlcNAc(b1-3)]Gal(b1-4)Glc
# Method in brief: as §1
# [12] = target: Fuc(a1-3)[Gal(b1-4)]GlcNAc6S
# Method in brief: as §1
# [13] = target: Fuc(a1-3)[Gal3S(b1-4)]Glc
# Method in brief: as §1
# [14] = target: Fuc(a1-3)[Gal3S(b1-4)]GlcNAc
# Method in brief: as §1
# [15] = target: Fuc(a1-3)[Gal3S(b1-4)]GlcNAc6S
# Method in brief: as §1
# [16] = target: Fuc(a1-3)[GalNAc(b1-4)]GlcNAc
# Method in brief: as §1
# [17] = target: Fuc(a1-3)[GalNAc(b1-4)]GlcNAc6S
# Method in brief: as §1
# Fuc(a1-4)GlcNAc = target: Fuc(a1-4)GlcNAc
# Method in brief: as §1
# Fuc(b1-3)GlcNAc = target: Fuc(b1-3)GlcNAc
# Method in brief: as §1
# Gal(a1-2)Gal = target: Gal(a1-2)Gal
# Method in brief: as §1
# Gal(a1-3)Gal = target: Gal(a1-3)Gal
# Method in brief: as §1
# Gal(a1-3)Gal(b1-3)GlcNAc = target: Gal(a1-3)Gal(b1-3)GlcNAc
# Method in brief: as §1
# [18] = target: Gal(a1-3)Gal(b1-3)GlcNAc(b1-2)Man
# Method in brief: as §1
# [19] = target: Gal(a1-3)Gal(b1-3)GlcNAc(b1-2)Man(a1-3)[Gal(a1-3)Gal(b1-3)GlcNAc(b1-2)Man(a1-6)]Man(b1-4)GlcNAc(b1-4)GlcNAc
# Method in brief: as §1
# [20] = target: Gal(a1-3)Gal(b1-3)GlcNAc(b1-3)GalNAc
# Method in brief: as §1
# [21] = target: Gal(a1-3)Gal(b1-3)GlcNAc(b1-6)GalNAc
# Method in brief: as §1
# [22] = target: Gal(a1-3)Gal(b1-3)[Fuc(a1-4)]GlcNAc(b1-2)Man(a1-3)[Gal(a1-3)Gal(b1-3)[Fuc(a1-4)]GlcNAc(b1-2)Man(a1-6)]Man(b1-4)GlcNAc(b1-4)GlcNAc
# Method in brief: as §1
# Gal(a1-3)Gal(b1-4)Glc = target: Gal(a1-3)Gal(b1-4)Glc
# Method in brief: as §1
# Gal(a1-3)Gal(b1-4)GlcNAc = target: Gal(a1-3)Gal(b1-4)GlcNAc
# Method in brief: as §1
# [23] = target: Gal(a1-3)Gal(b1-4)GlcNAc(b1-2)Man
# Method in brief: as §1
# [24] = target: Gal(a1-3)Gal(b1-4)GlcNAc(b1-2)Man(a1-3)[Gal(a1-3)Gal(b1-4)GlcNAc(b1-2)Man(a1-6)]Man(b1-4)GlcNAc(b1-4)GlcNAc
# Method in brief: as §1
# [25] = target: Gal(a1-3)Gal(b1-4)GlcNAc(b1-3)GalNAc
# Method in brief: as §1
# [26] = target: Gal(a1-3)Gal(b1-4)GlcNAc(b1-6)GalNAc
# Method in brief: as §1
# [27] = target: Gal(a1-3)Gal(b1-4)[Fuc(a1-3)]GlcNAc
# Method in brief: as §1
# [28] = target: Gal(a1-3)Gal(b1-4)[Fuc(a1-3)]GlcNAc(b1-2)Man(a1-3)[Gal(a1-3)Gal(b1-4)[Fuc(a1-3)]GlcNAc(b1-2)Man(a1-6)]Man(b1-4)GlcNAc(b1-4)GlcNAc
# Method in brief: as §1
# Gal(a1-3)GalNAc = target: Gal(a1-3)GalNAc
# Method in brief: as §1
# [29] = target: Gal(a1-3)[Gal(a1-4)]Gal(b1-4)GlcNAc
# Method in brief: as §1
# [30] = target: Gal(a1-4)Gal(b1-3)GlcNAc(b1-2)Man(a1-3)[Gal(a1-4)Gal(b1-3)GlcNAc(b1-2)Man(a1-6)]Man(b1-4)GlcNAc(b1-4)GlcNAc
# Method in brief: as §1
# Gal(a1-4)Gal(b1-4)Glc = target: Gal(a1-4)Gal(b1-4)Glc
# Method in brief: as §1
# Gal(a1-4)Gal(b1-4)GlcNAc = target: Gal(a1-4)Gal(b1-4)GlcNAc
# Method in brief: as §1
# [31] = target: Gal(a1-4)Gal(b1-4)GlcNAc(b1-2)Man(a1-3)[Gal(a1-4)Gal(b1-4)GlcNAc(b1-2)Man(a1-6)]Man(b1-4)GlcNAc(b1-4)GlcNAc
# Method in brief: as §1
# [32] = target: Gal(a1-4)Gal(b1-4)GlcNAc(b1-3)Gal(b1-4)Glc
# Method in brief: as §1
# Gal(a1-4)GlcNAc = target: Gal(a1-4)GlcNAc
# Method in brief: as §1
# Gal(a1-6)Glc = target: Gal(a1-6)Glc
# Method in brief: as §1
binder,measurement,setting,value
AT1G15820(NC) (Arabidopsis thaliana) (protein) MAMAVSGAVLSGLGSSFLTGGKRGATALASGVGDAIAPFSFGSLLGTQLLLMGWVESKRWVDFFNPDSQSVEWATPWSKTAENFANYTGDQGYPGGRFFDPLGLAGKNRDGVYEPDFEKLERLKLAEIKHSRLAMVAMLIFYFEAGQGKTPLGALGL,glycan array binding signal (z-score),Fuc(a1-3)GlcNAc,-0.367
same,glycan array binding signal (z-score),[1],-0.042
same,glycan array binding signal (z-score),[2],0.468
same,glycan array binding signal (z-score),[3],-0.394
same,glycan array binding signal (z-score),[4],-0.533
same,glycan array binding signal (z-score),[5],-0.49
same,glycan array binding signal (z-score),[6],-0.453
same,glycan array binding signal (z-score),[7],-0.088
same,glycan array binding signal (z-score),[8],-0.171
same,glycan array binding signal (z-score),[9],-0.057
same,glycan array binding signal (z-score),[10],-0.347
same,glycan array binding signal (z-score),[11],0.038
same,glycan array binding signal (z-score),[12],-0.425
same,glycan array binding signal (z-score),[13],-0.315
same,glycan array binding signal (z-score),[14],-0.272
same,glycan array binding signal (z-score),[15],-0.391
same,glycan array binding signal (z-score),[16],0.06
same,glycan array binding signal (z-score),[17],-0.624
same,glycan array binding signal (z-score),Fuc(a1-4)GlcNAc,1.22
same,glycan array binding signal (z-score),Fuc(b1-3)GlcNAc,-0.028
same,glycan array binding signal (z-score),Gal(a1-2)Gal,-0.124
same,glycan array binding signal (z-score),Gal(a1-3)Gal,0.252
same,glycan array binding signal (z-score),Gal(a1-3)Gal(b1-3)GlcNAc,-0.251
same,glycan array binding signal (z-score),[18],-0.29
same,glycan array binding signal (z-score),[19],0.219
same,glycan array binding signal (z-score),[20],0.707
same,glycan array binding signal (z-score),[21],-0.235
same,glycan array binding signal (z-score),[22],0.353
same,glycan array binding signal (z-score),Gal(a1-3)Gal(b1-4)Glc,-0.316
same,glycan array binding signal (z-score),Gal(a1-3)Gal(b1-4)GlcNAc,-0.211
same,glycan array binding signal (z-score),[23],-0.445
same,glycan array binding signal (z-score),[24],-0.047
same,glycan array binding signal (z-score),[25],0.2
same,glycan array binding signal (z-score),[26],-0.463
same,glycan array binding signal (z-score),[27],-0.188
same,glycan array binding signal (z-score),[28],0.706
same,glycan array binding signal (z-score),Gal(a1-3)GalNAc,1.58
same,glycan array binding signal (z-score),[29],4.55
same,glycan array binding signal (z-score),[30],-0.238
same,glycan array binding signal (z-score),Gal(a1-4)Gal(b1-4)Glc,1.99
same,glycan array binding signal (z-score),Gal(a1-4)Gal(b1-4)GlcNAc,0.597
same,glycan array binding signal (z-score),[31],2.97
same,glycan array binding signal (z-score),[32],-0.468
same,glycan array binding signal (z-score),Gal(a1-4)GlcNAc,-0.425
same,glycan array binding signal (z-score),Gal(a1-6)Glc,-0.547
